A collection of fitness landscapes (doi:10.1038/s41467-024-54723-y)
The full ranking holds about 18,000 sequences; the median of “TetR repression strength (sort-seq, GFP reporter)” is about 0.23, and the highest 2% start at about 0.68. Some of the results follow.

Biological target: TetR (class B, Tn10) (UniProt P04483)
Assay: TetR repression strength (sort-seq, GFP reporter) (relative to tetO2 = 1); higher = stronger repression
Details: E. coli
Outline: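 In LB with 50 µg/mL chloramphenicol, E. coli SIG10-MAX holding a low-copy library with eight randomized operator positions between a constitutive promoter and sfGFP, plus constitutive TetR, grew for 5 h at 37 °C. FACS then sorted 10^6 cells into 13 fluorescence bins for Illumina sequencing of each bin. Repression strength equals the top bin index plus one less the read-weighted mean bin, normalized to the unaltered operator. Values from three independent transformations were averaged when reads were ≥30 in every replicate and the CV was ≤0.5.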

Chain of UniProt P04483 (P04483 whole entry): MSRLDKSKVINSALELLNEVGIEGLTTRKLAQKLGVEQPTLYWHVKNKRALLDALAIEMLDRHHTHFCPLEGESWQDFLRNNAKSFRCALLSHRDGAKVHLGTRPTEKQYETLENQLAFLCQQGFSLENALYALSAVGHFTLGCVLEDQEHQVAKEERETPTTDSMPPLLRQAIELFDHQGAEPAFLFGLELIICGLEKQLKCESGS

Sequence | TetR repression strength
TCCCTGTCAGTGTCTGAGA | 0.328
TCCCGGCCAGTGGTGGAGA | 0.568
TCCCTAACAGTAAGGGAGA | 0.118
TCCCGTCGAGTATGCGAGA | 0.373
TCCCGCGAAGTTGGGGAGA | 0.569
TCCCCTAAAGTATATGAGA | 0.28
TCCCGGGTAGTGTAAGAGA | 0.146
TCCCAGTTAGTAATTGAGA | 0.0467
TCCCGACTAGTGACAGAGA | 0.674
TCCCCACGAGTTGGTGAGA | 0.111
TCCCAGGTAGTTTTTGAGA | 0.307
TCCCAAAAAGTGACAGAGA | 0.627
TCCCCGTCAGTTGTCGAGA | 0.195
TCCCCAGCAGTCGATGAGA | 0.259
TCCCGGTTAGTAGTCGAGA | 0.147
TCCCGATTAGTGGAAGAGA | 0.471
TCCCGAGCAGTGTTAGAGA | 0.4
TCCCGAGCAGTGAGAGAGA | 0.689
TCCCGCAAAGTCCTGGAGA | 0.518
TCCCGGTCAGTTGTCGAGA | 0.321
TCCCAAGGAGTTGCGGAGA | 0.222
TCCCTGCCAGTATAGGAGA | 0.308
TCCCCGCGAGTTCGAGAGA | 0.199
TCCCCAACAGTTACAGAGA | 0.319
TCCCTTTAAGTTGACGAGA | 0.338
TCCCGTAGAGTTGAGGAGA | 0.25

Sequence | TetR repression strength
TCCCAAGAAGTGTACGAGA | 0.181
TCCCTAAGAGTTGTCGAGA | 0.185
TCCCGGATAGTACGAGAGA | 0.187
TCCCTCGCAGTGCTTGAGA | 0.215
TCCCATGCAGTGGGCGAGA | 0.171
TCCCGTTGAGTGGAAGAGA | 0.215
TCCCGATAAGTCAGTGAGA | 0.747
TCCCCGTCAGTCAGCGAGA | 0.203
TCCCCGGCAGTGTGCGAGA | 0.0971
TCCCTATGAGTGAGGGAGA | 0.156
TCCCATTGAGTTCGAGAGA | 0.29
TCCCCGTCAGTTAGAGAGA | 0.187
TCCCATTGAGTCCGGGAGA | 0.0605
TCCCCAAGAGTAAATGAGA | 0.368
TCCCAGTCAGTGCCCGAGA | 0.242
TCCCTGTCAGTAAGCGAGA | 0.305
TCCCTAAAAGTTAGGGAGA | 0.129
TCCCTTCCAGTTGGGGAGA | 0.123
TCCCTTCAAGTAGCGGAGA | 0.365
TCCCTCGCAGTATTGGAGA | 0.259
TCCCCCAAAGTGGATGAGA | 0.055
TCCCGCAGAGTGTAGGAGA | 0.191
TCCCTGGAAGTTCGAGAGA | 0.0284
TCCCATGCAGTGGTGGAGA | 0.114
TCCCCTATAGTTGTGGAGA | 0.0257
TCCCTGGCAGTTAAAGAGA | 0.155

Sequence | TetR repression strength
TCCCCATAAGTTTTTGAGA | 0.454
TCCCTATGAGTATCGGAGA | 0.0209
TCCCTTGGAGTGAATGAGA | 0.15
TCCCTGGCAGTACTTGAGA | 0.109
TCCCTACAAGTCGTAGAGA | 0.0381
TCCCTGTAAGTGAAAGAGA | 0.231
TCCCCTTCAGTGCGGGAGA | 0.041
TCCCAGGTAGTACGCGAGA | 0.224
TCCCACCTAGTTAACGAGA | 0.589
TCCCTGCAAGTGGAGGAGA | 0.59
TCCCGGATAGTAAACGAGA | 0.224
TCCCTTACAGTCCGGGAGA | 0.206
TCCCGTGAAGTCATGGAGA | 0.232
TCCCGGTAAGTCGTGGAGA | 0.0301
TCCCTAAGAGTGGGCGAGA | 0.157
TCCCGGCGAGTACGGGAGA | 0.2
TCCCTCGCAGTGGAGGAGA | 0.101
TCCCAGGGAGTTTTAGAGA | 0.305
TCCCAGGCAGTCCGTGAGA | 0.2
TCCCTTCTAGTGTGGGAGA | 0.142
TCCCAAGCAGTGGTAGAGA | 0.313
TCCCCTAGAGTCAGTGAGA | 0.248
TCCCGGCCAGTTCCAGAGA | 0.0274
TCCCCGGCAGTTCGGGAGA | 0.104
TCCCTACCAGTTCTTGAGA | 0.396
TCCCTTCGAGTGTATGAGA | 0.287

Sequence | TetR repression strength
TCCCGCGAAGTGAACGAGA | 0.175
TCCCCTACAGTGACGGAGA | 0.174
TCCCGCAGAGTATGCGAGA | 0.401
TCCCGGTGAGTCGCTGAGA | 0.035
TCCCTAGTAGTCGAGGAGA | 0.061
TCCCGATAAGTTATAGAGA | 0.553
TCCCGGTGAGTTTAAGAGA | 0.0498
TCCCAGTCAGTGACGGAGA | 0.337
TCCCGTATAGTGCACGAGA | 0.118
TCCCGACTAGTCTGGGAGA | 0.299
TCCCAGAAAGTATCAGAGA | 0.376
TCCCATAGAGTCGACGAGA | 0.247
TCCCGGCAAGTTTTAGAGA | 0.0853
TCCCCGTAAGTCACCGAGA | 0.273
TCCCGGCGAGTAGTAGAGA | 0.287
TCCCTTCGAGTAGGGGAGA | 0.231
TCCCCCCCAGTTAGAGAGA | 0.253
TCCCTAGTAGTTTTTGAGA | 0.256
TCCCTTAGAGTAATCGAGA | 0.187
TCCCGCCTAGTTGGCGAGA | 0.0841
TCCCAAGTAGTAAATGAGA | 0.193
TCCCAATAAGTGTCTGAGA | 0.465
TCCCGGGCAGTAGTCGAGA | 0.373
TCCCATAAAGTGACAGAGA | 0.0912
TCCCTGCAAGTAAGTGAGA | 0.135
TCCCGGGTAGTGCCTGAGA | 0.159

Sequence | TetR repression strength
TCCCTGTCAGTCAGTGAGA | 0.135
TCCCACCGAGTGCGTGAGA | 0.253
TCCCTGCTAGTCGTTGAGA | 0.423
TCCCGGTTAGTTTGTGAGA | 0.212
TCCCGGTAAGTGGCAGAGA | 0.21
TCCCGTGCAGTTGCGGAGA | 0.191
TCCCATTAAGTGGTCGAGA | 0.235
TCCCAAAAAGTAAAGGAGA | 0.351
TCCCTGGGAGTCGTAGAGA | 0.111
TCCCGGCTAGTTGGAGAGA | 0.225
TCCCCCCCAGTGCAAGAGA | 0.379
TCCCGCGGAGTGGATGAGA | 0.257
TCCCCGCGAGTGAGGGAGA | 0.124
TCCCTAACAGTTAACGAGA | 0.624
TCCCAAACAGTACGTGAGA | 0.253
TCCCGTATAGTGCCTGAGA | 0.119
TCCCTCTAAGTGCTAGAGA | 0.582
TCCCCGTCAGTACTAGAGA | 0.286
TCCCCGAGAGTGACGGAGA | 0.372
TCCCGTCCAGTGTCCGAGA | 0.0697
TCCCTGTGAGTATTTGAGA | 0.225
TCCCGTAAAGTGGTCGAGA | 0.0884
TCCCGCGGAGTGCGAGAGA | 0.108
TCCCGATCAGTGAGTGAGA | 0.62
TCCCGGACAGTGCCAGAGA | 0.402
TCCCTTGCAGTATTTGAGA | 0.436

Sequence | TetR repression strength
TCCCTGGGAGTCGACGAGA | 0.214
TCCCCTGGAGTAGGTGAGA | 0.0556
TCCCGGGTAGTTGCAGAGA | 0.125
TCCCTTTAAGTGTTCGAGA | 0.275
TCCCTCTTAGTTTTAGAGA | 0.213
TCCCAGAGAGTGCAGGAGA | 0.0148
TCCCACGGAGTTGTGGAGA | 0.306
TCCCACTAAGTTAGTGAGA | 0.131
TCCCTTCAAGTGATCGAGA | 0.232
TCCCCCCTAGTGGCAGAGA | 0.263
TCCCCCTGAGTTGGGGAGA | 0.307
TCCCGAATAGTGAGGGAGA | 0.127
TCCCCTACAGTGGTCGAGA | 0.216
TCCCGATCAGTGTTGGAGA | 0.213
TCCCTAGGAGTAGATGAGA | 0.27
TCCCGAGTAGTCCTCGAGA | 0.207
TCCCATTCAGTAAGTGAGA | 0.527
TCCCGTATAGTACTCGAGA | 0.123
TCCCATGCAGTGTGGGAGA | 0.299
TCCCCGGAAGTGACTGAGA | 0.239
TCCCATTTAGTGGGTGAGA | 0.0643
TCCCAGGTAGTGCTTGAGA | 0.262
TCCCGACTAGTCGTGGAGA | 0.245
TCCCGCATAGTCCGCGAGA | 0.156
TCCCGGTTAGTTTGCGAGA | 0.201
TCCCTCGTAGTCGAGGAGA | 0.317

Sequence | TetR repression strength
TCCCGCGGAGTGAACGAGA | 0.178
TCCCTGAAAGTGCGGGAGA | 0.127
TCCCTGGGAGTAGTCGAGA | 0.244
TCCCATAGAGTGGTTGAGA | 0.158
TCCCACATAGTGTATGAGA | 0.288
TCCCGCAGAGTGAGGGAGA | 0.284
TCCCTTTTAGTGTACGAGA | 0.207
TCCCTCCTAGTGTGGGAGA | 0.194
TCCCCTTAAGTGAAAGAGA | 0.253
TCCCTTCTAGTCAGGGAGA | 0.196
TCCCAGTGAGTAGCGGAGA | 0.17
TCCCAAAGAGTCACAGAGA | 0.218
TCCCGGACAGTCTGCGAGA | 0.172
TCCCGAAAAGTCAAGGAGA | 0.398
TCCCGCACAGTATCTGAGA | 0.351
TCCCTCGTAGTGGGCGAGA | 0.146
TCCCATCGAGTGCCTGAGA | 0.104
TCCCCAAGAGTAAGTGAGA | 0.332
TCCCCCACAGTTATGGAGA | 0.151
TCCCGCATAGTCATCGAGA | 0.213
TCCCGCATAGTGGGGGAGA | 0.356
TCCCAAAAAGTTGGCGAGA | 0.309
TCCCGTAGAGTTGCGGAGA | 0.209
TCCCTGGCAGTTTAGGAGA | 0.215
TCCCGAAGAGTATGTGAGA | 0.285
TCCCGACAAGTGGCGGAGA | 0.184

Sequence | TetR repression strength
TCCCTTTAAGTGTTGGAGA | 0.276
TCCCGGGAAGTGTTGGAGA | 0.119
TCCCCTTCAGTTTCTGAGA | 0.357
TCCCGGGGAGTGAGAGAGA | 0.449
TCCCTGGGAGTTATGGAGA | 0.215
TCCCGGAAAGTTGGTGAGA | 0.27
TCCCCACCAGTGGCGGAGA | 0.231
TCCCTGTTAGTTACCGAGA | 0.227
TCCCCGCGAGTGCGTGAGA | 0.345
TCCCGTGTAGTAGCGGAGA | 0.182
TCCCTAGGAGTTAATGAGA | 0.208
TCCCAATGAGTGGGCGAGA | 0.238
TCCCAGTAAGTACGGGAGA | 0.181
TCCCTAAAAGTGTTCGAGA | 0.302
TCCCTGATAGTCGATGAGA | 0.247
TCCCTCACAGTCTGGGAGA | 0.212
TCCCTGAGAGTGCGCGAGA | 0.173
TCCCTATCAGTCCGAGAGA | 0.324
TCCCCTGAAGTTGGGGAGA | 0.146
TCCCGGACAGTGGTTGAGA | 0.164
TCCCGTCTAGTTTTGGAGA | 0.311
TCCCACAAAGTTGTAGAGA | 0.207
